The source of these data is PubChem BioAssay AID1346428 (National Center for Advancing Translational Sciences (NCATS), 2018).

Structures are written as SMILES. “And” between values parts separate entries of the source, which are not always exact repeats. Identical values can stand only once. Screen size: about 48,000 compounds; about 1,200 (2.5%) were called active. Another 2% or so got no clear call; they are omitted.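 How the source made its calls: active means activation of at least 60% and not above a set upper limit (about 1 call in 100 departs from these limits); inconclusive means activation of 40% to 60%, or above that upper limit; inactive means activation under 40%.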 Some of the results follow.

Sequence of UniProt O75388 (O75388 whole entry, looked up): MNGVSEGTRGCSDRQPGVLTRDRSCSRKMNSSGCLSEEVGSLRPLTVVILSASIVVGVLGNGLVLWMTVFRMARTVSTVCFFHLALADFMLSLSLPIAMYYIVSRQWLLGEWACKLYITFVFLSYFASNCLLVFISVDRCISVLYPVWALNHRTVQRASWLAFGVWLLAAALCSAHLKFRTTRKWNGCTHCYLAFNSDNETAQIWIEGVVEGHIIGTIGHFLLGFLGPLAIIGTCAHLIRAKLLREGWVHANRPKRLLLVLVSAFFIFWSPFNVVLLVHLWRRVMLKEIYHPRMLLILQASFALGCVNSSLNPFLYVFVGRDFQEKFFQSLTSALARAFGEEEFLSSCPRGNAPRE

This assay deals with Probable G-protein coupled receptor 32 (Homo sapiens) (UniProt O75388). The experiment in a line: qHTS for Agonists of Human Resolvin D1 Receptor DRV1. Further: 0% is about no effect. To be noted: CHO-K1 GPR32 beta-arrestin PathHunter luminescence, 90 min; at 76.9 µM; active compounds read high; zero percent set by DMSO-only wells. Put shortly:
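PathHunter beta-arrestin recruitment in CHO-K1 cells stably expressing ProLink-tagged GPR32. Cells were exposed to compound for 90 min at 37 C, then chemiluminescence was read after 1 h detection at ambient temperature; DMSO served as basal control.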
As to `Cc1ccc(CNc2nc3c(c(=O)n(C)c(=O)n3C)n2Cc2ccc(Cl)cc2)cc1`, the activation was inactive: 8.98%.

Turning to `Cc1cccc(-n2nnc(-c3nc(-c4ccccc4)no3)c2N)c1C`, the activation is inactive: 2.03%.

As for `COc1cccc(CNC(=O)c2ccc3c(c2)nc2n3CCOC2)c1OC`, the activation is inactive: -5.34%.

On to `Cc1ccc(C)c(NC(=O)CN2CCN(C3CCCCC3)C(=O)C2=O)c1`, for which the activation is inactive: 40.6%.

For `CC1CCN(S(=O)(=O)c2ccc3c(ccn3CC(=O)NCc3ccccc3F)c2)CC1`, the activation was inactive: 28.6%.

In the case of `CCn1cc(C(=O)NCCc2ccc(OC)c(OC)c2)c(=O)c2cc(S(=O)(=O)N3CCOCC3)ccc21`, the activation is inactive: -31.3%.

Consider `Cc1ccc(C(=O)Nc2nnc(S(=O)(=O)N(C)Cc3ccco3)s2)cc1`, for which the activation was inactive: 1.46%.

For `CCc1nc2c(cnn2-c2ccc(C)cc2)c(=O)n1-c1ccc(C)cc1`, the activation is inactive: -4.43%.

Consider `Cc1cnc(C(=O)NCCc2ccc(S(=O)(=O)NC(=O)NC3CCCCC3)cc2)cn1`, for which the activation was inactive: -2.26% and inactive: 8.31%.

For `Cc1ccc(-c2noc(C(C)NC(=O)c3ccco3)n2)cc1` (configuration not stated), the activation was inactive: 0%.

For the compound `CC(C)(C)C1CCc2nc(NC(=O)COc3ccccc3[N+](=O)[O-])sc2C1` (configuration not stated), the activation was inactive: -1.99%.

On to `COc1ccc2c(CNC3CCCC3)c(C(=O)O)n(Cc3ccccc3C)c2c1`, for which the activation was inactive: -7.55%.

As for `CCc1nn2c(=O)cc(COC(=O)c3cccc(NC(=O)c4ccccc4C)c3)nc2s1`, the activation was inactive: -7.66%.

With `COCCCNC(=O)CSc1nc2cc3c(cc2c(=O)n1CCCCCC(=O)NCCc1ccc(OC)c(OC)c1)OCO3`, the activation was inactive: -4.57%.

On to `CC(C)C(=O)Nc1cccc(C(F)(F)F)c1`, for which the activation was active: 60.7%.

Consider `CC1=C(c2ccc(C)cc2)S(=O)(=O)N(Cc2ccc(C(=O)NCc3ccccc3)cc2)C1=O`, for which the activation is inactive: -16.2%.

As for `O=C(NCc1ccc(F)cc1)c1ccc2c(c1)N(Cc1c(F)cccc1Cl)C(=O)CS2`, the activation was inactive: -14.4%.

With `Cc1cc(C)c2c(=O)cc(C(=O)Nc3sc4c(c3C#N)CCCC4)oc2c1`, the activation is inactive: 28.6%.

Take `O=C(Nc1cc(C(F)(F)F)ccc1Cl)c1noc2c1CCCCC2`: the activation is inactive: 49.8%.

As for `Cc1ccccc1NC(=O)CN1C(=O)C2(SCC(=O)N2c2ccc(F)cc2)c2ccccc21` (configuration not stated), the activation is inactive: -3.18%.

`COc1cc(NC(=O)Cn2c(=O)n(CC(=O)NCCc3ccc(OC)c(OC)c3)c(=O)c3sccc32)cc(OC)c1`: the activation was inactive: -18.9%.

As for `Cc1nc(-c2ccc(S(=O)(=O)N3CCN(c4cccc(Cl)c4)CC3)cc2)co1`, the activation is inactive: 13%.

For the compound `CC(=O)c1cccc(NC(=O)c2sc(-n3nc(C)c(CCC(C)C)c3C)nc2C)c1`, the activation is inactive: 2.16%.

Turning to `CC(=O)Nc1ccc(S(=O)(=O)NCC2CCC(C(=O)NCc3ccccc3Cl)CC2)cc1` (configuration not stated), the activation was inactive: -4.03%.

Take `COc1cccc(Nc2sc(C(=O)c3ccc4c(c3)OCO4)c(N)c2S(=O)(=O)c2ccccc2)c1`: the activation was inactive: -25.4%.

As for `COc1ccc(-n2nnnc2C2CCN(S(=O)(=O)c3ccc(F)cc3Cl)CC2)cc1`, the activation was inactive: -16.8%.

`COc1ccc(N2CC(NC(=O)Cc3cccs3)CC2=O)cc1` (configuration not stated): the activation was inactive: -8.24%.

`CC(=O)NCCNc1nc2c(-c3cccc(C)c3)nnn2c2ccc(Cl)cc12`: the activation was inactive: -3.72%.

Regarding `CSc1ccc(CNC(=O)Cc2csc3ccccc23)cc1`, the activation was inactive: -17.4%.

For the compound `CCn1c(C)c(C)c2cc(C(=O)NCc3ccc(N(C)C)cc3)ccc21`, the activation was inactive: -22.5%.

On to `COc1ccc(CNC(=O)CN(c2cc(C(F)(F)F)ccc2Cl)S(C)(=O)=O)cc1`, for which the activation is inactive: 29.5%.

With `COc1ccc(C2=NC3(CCCCCC3)N(CC(=O)Nc3ccc(C)c(C)c3)C2=O)cc1`, the activation is inactive: -8.73%.

Take `Cc1ccc2ncc(S(=O)(=O)c3ccccc3)c(N3CCCCC3C)c2c1` (configuration not stated): the activation is inactive: -29.8%.

Consider `COc1ccc(Cl)cc1NC(=O)Cn1ncc2c3ccccc3n(Cc3ccccc3)c2c1=O`, for which the activation was inactive: -8.72%.

For the compound `Cc1ccc(C(=O)c2oc3ccccc3c2NC(=O)c2cc(-c3ccc(Cl)cc3)on2)cc1`, the activation is inactive: 5.99%.

Turning to `Cc1ccccc1Nc1sc(C(=O)c2ccc(F)cc2)c(N)c1C(=O)NCCc1ccccc1`, the activation was inactive: -63.5%.

Consider `O=C(COc1ccccc1Cl)N(Cc1ccco1)Cc1ccco1`, for which the activation is inactive: -13.3%.

On to `Cc1ccccc1C(=O)Oc1cc(-c2ccc3c(c2)OCO3)cc(=O)c2c(C)oc(C)c12`, for which the activation is inactive: -12.8%.

Consider `CN(C)c1ccc(NC(=O)CSc2nc(-c3ccco3)cc(C(F)(F)F)n2)cc1`, for which the activation is inactive: -2.28%.

As for `O=C(NCc1ccc(F)cc1)C1CCN(S(=O)(=O)c2ccc3c(c2)CCCN3C(=O)C2CCC2)CC1`, the activation was inactive: -5.06%.

Take `CCOc1cc(CNC(=O)c2ccc3c(c2)nc2n3CCCCC2)ccc1OC`: the activation was inactive: -10.5%.

As for `O=C(NCc1ccc(F)cc1)c1cnc(N2CCOCC2)c2ccccc12`, the activation was inactive: -12.1%.

Take `Cc1cc(C)cc(NC(=O)C2CCCN(c3cnccn3)C2)c1` (configuration not stated): the activation is inactive: -3.86%.

For the compound `Cc1ccc(Cl)cc1NC(=O)c1cc2c(=O)n3cccc(C)c3nc2n1C`, the activation was inactive: -4.22%.

Consider `Cc1ccc(S(=O)(=O)c2cnc(SCC(=O)Nc3ccccc3C(F)(F)F)[nH]c2=O)cc1C`, for which the activation was inactive: -2.45%.

Turning to `CC1CCN(CCCNC(=O)CN2C(=O)CSc3ccc(S(=O)(=O)N4CCC(C)CC4)cc32)CC1`, the activation was inactive: -14%.

Consider `Cc1ccc(N2CCN(C(=O)c3ccc(Nc4nc5ccccc5n5nnnc45)cc3)CC2)c(C)c1`, for which the activation was inactive: -25.3%.

Regarding `COc1ccccc1N1CCN(S(=O)(=O)c2c(C)sc3ncn(CC(=O)Nc4ccc(C(C)C)cc4)c(=O)c23)CC1`, the activation is inactive: -0.0507%.

With `COc1ccc(-n2c(=O)c3c4c(sc3n(CC(=O)N3CCCCC3C)c2=O)CCC4)c(OC)c1` (configuration not stated), the activation was inactive: -0.439%.

With `O=S(=O)(O)c1cc(I)c(O)c2ncccc12`, the activation is active: 105%.

Regarding `COc1ccc(Cl)cc1NC(=O)CSc1nc2c([nH]c3ccccc32)c(=O)n1-c1ccccc1`, the activation was inactive: -14%.

As to `Cc1ccc(S(=O)(=O)N2CCN(Cc3ccccc3)CC2)c(C)c1NS(C)(=O)=O`, the activation was inactive: 3.67%.
